{
  "source": "patent US20060234955A1",
  "about": "“Cardiac glycosides to treat cystic fibrosis and other il-8 dependent disorders” (priority 2002, published 2006)",
  "system": "IL-8 secretion from cystic fibrosis epithelial cell line IB-3",
  "settings": "for ID50: inhibition of IL-8 secretion from cystic fibrosis epithelial cell line IB-3, 48 hour incubation",
  "data": [
    {"smiles": "C[C@]12CC[C@H](O)C[C@H]1CC[C@@H]1[C@@H]2C[C@@H](O)[C@]2(C)[C@@H](C3=CC(=O)OC3)CC[C@]12O", "note": "[V, digoxigenin]", "values": [
      {"measurement": "ID50", "value": 0.017, "unit": "µM"}
    ]},
    {"smiles": "CCNC", "note": "[MEA, methyl-ethylamine, reference compound]", "values": [
      {"measurement": "IL-8 secretion by IB3 cells", "value": "suppressed"}
    ]},
    {"smiles": "CC(=O)O[C@H]1CC[C@]2(C=O)[C@H]3CC[C@]4(C)[C@@H](C5=CC(=O)OC5)CC[C@]4(O)[C@@H]3CC[C@]2(O)C1", "note": "[VII, acetyl-stropanthidin]", "values": [
      {"measurement": "ID50", "value": 0.06, "unit": "µM"}
    ]},
    {"smiles": "C[C@H]1O[C@@H](O[C@H]2[C@@H](O)C[C@H](O[C@H]3[C@@H](O)C[C@H](O[C@H]4CC[C@@]5(C)[C@H](CC[C@@H]6[C@@H]5C[C@@H](O)[C@]5(C)[C@@H](C7=CC(=O)OC7)CC[C@]65O)C4)O[C@@H]3C)O[C@@H]2C)C[C@H](O)[C@@H]1O", "note": "[III, digoxin, reference compound]", "values": [
      {"measurement": "ID50", "value": 0.0054, "unit": "µM"}
    ]},
    {"smiles": "CC(=O)O[C@H]1CC[C@@]2(C)[C@H](CC[C@@H]3[C@@H]2C[C@@H](OC(C)=O)[C@]2(C)[C@@H](C4=CC(=O)OC4)CC[C@]32O)C1", "note": "(single isomer, unassigned; diac) [VIII, digoxingenin, 3,12-diAc]", "values": [
      {"measurement": "activity on IL-8 secretion at 1000 nM", "setting": "concentration of 1000 nM (1 micromolar)", "value": "entirely inactive"},
      {"measurement": "ID50", "value": "> 1", "unit": "µM"}
    ]},
    {"smiles": "C[C@H]1O[C@@H](O[C@H]2[C@@H](O)C[C@H](O[C@H]3[C@@H](O)C[C@H](O[C@H]4CC[C@@]5(C)[C@H](CC[C@@H]6[C@@H]5CC[C@]5(C)[C@@H](C7=CC(=O)OC7)CC[C@]65O)C4)O[C@@H]3C)O[C@@H]2C)C[C@H](O)[C@@H]1O", "note": "[II, digitoxin, reference compound]", "values": [
      {"measurement": "ID50", "value": 0.0013, "unit": "µM"}
    ]},
    {"smiles": "CO[C@H]1C[C@H](O[C@H]2CC[C@@]3(C)[C@H](CC[C@@H]4[C@@H]3CC[C@]3(C)[C@@H](C5=CC(=O)OC5)[C@@H](OC(C)=O)C[C@]43O)C2)O[C@@H](C)[C@@H]1O", "note": "[Compound I]", "values": [
      {"measurement": "ID50", "value": 0.001, "unit": "µM"}
    ]},
    {"smiles": "CCCn1c(=O)c2[nH]c(C3CCCC3)nc2n(CCC)c1=O", "note": "[CPX, 1,3-Dipropyl-8-Cyclopentyl xanthine, reference compound]", "values": [
      {"measurement": "IL-8 secretion by IB3 cells", "value": "suppressed"}
    ]},
    {"smiles": "C[C@@H]1O[C@@H](O[C@H]2C[C@@H](O)[C@]3(CO)[C@H]4[C@H](O)C[C@]5(C)[C@@H](C6=CC(=O)OC6)CC[C@]5(O)[C@@H]4CC[C@]3(O)C2)[C@H](O)[C@H](O)[C@H]1O", "note": "[Compound IV, ouabain, reference compound]", "values": [
      {"measurement": "ID50", "value": 0.008, "unit": "µM"}
    ]},
    {"smiles": "C[C@]12CC[C@H](O)C[C@H]1CC[C@@H]1[C@@H]2CC[C@]2(C)[C@@H](C3=CC(=O)OC3)CC[C@]12O", "note": "[VI, digitoxigenin]", "values": [
      {"measurement": "ID50", "value": 0.025, "unit": "µM"}
    ]}
  ]
}
